In PubChem BioAssay (Tox21):
Values joined by “and” are separate entries in the source; they are usually repeats but may differ in a detail not shown here. Equal entries are not always repeated. Inconclusive means that the source gave no clear call. Such entries were picked first, then a sample of the others. For some assays here: Potencies beside an inconclusive call are fits to weak or partial responses and may not hold up. Active and inactive are the calls of the source. Unless noted, the call rests on the fitted dose curve; in most records, active means well fitted curve in the direction sought with a large enough effect in the repeat runs; inconclusive means weak or mixed curves; inactive means no such curve, though single readings can be large; an effect the other way counts as inactive or inconclusive.

Legend:
[1] = target: Peroxisome proliferator-activated receptor gamma (Homo sapiens) (UniProt P37231); assay: qHTS assay to identify small molecule antagonists of the peroxisome proliferator-activated receptor gamma (PPARg) signaling pathway (AID 743191; calls by dose curve; further: nearly all actives have a fitted effect of over 30% in size; further: potency means the concentration at half of the fitted maximal effect; on ratio activity, negative = inhibition: on the % scale 0 is the no-effect control and ±100 the full control effect); conditions: HEK293H PPARg-UAS-bla, beta-lactamase ratio, antagonist, 17 h
How it was run: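 GeneBLAzer PPARg UAS-bla HEK293H cells carrying a UAS-driven beta-lactamase reporter were plated at 3000 cells/well, preincubated 5 h at 37C, then given compound for 17 h at 37C; LiveBLAzer B/G FRET substrate was read after 1 h at room temperature.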

[2] = qHTS assay to identify small molecule agonists of the endoplasmic reticulum stress response signaling pathway (AID 1159516; active means well fitted activation curve with a large enough effect in the signal ratio in the repeat runs, not every such curve was filed as active; inconclusive means weak or mixed curves, or effect the other way; the % refers to the signal ratio; further: potency means the concentration at half of the fitted maximal effect); conditions: ESRE-bla HeLa, ER stress beta-lactamase reporter, 5 h
How it was run: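 CellSensor ESRE-bla HeLa cells, 1,500 per well, plated overnight, then exposed to compounds for 5 hr at 37 C. Beta-lactamase reporter read with LiveBLAzer B/G FRET substrate after 2 hr at room temperature, 405 nm excitation, 460 and 530 nm emission.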

[3] = qHTS assay for small molecule activators of the heat shock response signaling pathway - cell viability counter screen (AID 743209); conditions: HSE-bla HeLa viability, CellTiter-Glo luminescence, 5 h; activity change, negative = cytotoxicity: at 62.6 µM (top of the series) unless noted; further: on the % scale 0 is the no-effect control and ±100 the full control effect; nearly all actives have a fitted effect of over 50% in size
How it was run: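 HSE-bla HeLa cells plated overnight, then exposed to Tox21 compounds (23 nL in DMSO) for 5 h at 37 C. After the bla reporter read, CellTiter-Glo was added in the same wells and luminescence read after 30 min at room temperature.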

[4] = qHTS assay to identify small molecule antagonists of the peroxisome proliferator-activated receptor delta (PPARd) signaling pathway - cell viability counter screen (AID 743213); conditions: PPARd-bla HEK293H viability, CellTiter-Glo luminescence, 17 h; viability change, negative = cytotoxic: at 62 µM (top of the series) unless noted; further: nearly all actives have a fitted effect of over 50% in size; further: potency means the concentration at half of the fitted maximal effect
How it was run: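 CellTiter-Glo was added to PPARd-bla HEK293H wells following 17 h compound treatment in the presence of 300 nM L165041. Luminescence was recorded after 30 min at room temperature.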

[5] = target: Peroxisome proliferator-activated receptor delta (Homo sapiens) (UniProt Q03181); assay: qHTS assay to identify small molecule antagonists of the peroxisome proliferator-activated receptor delta (PPARd) signaling pathway (AID 743215; active means well fitted inhibition curve with a large enough effect in the signal ratio in the repeat runs, not every such curve was filed as active; inconclusive means weak or mixed curves, or effect the other way; inactive means no such curve, though single readings can be large or run the other way; the % refers to the signal ratio;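 further: cells stimulated with agonist L165041 at 300 nM final during compound exposure; on the % scale 0 is the no-effect control and ±100 the full control effect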); conditions: HEK293H PPARd-UAS-bla, beta-lactamase FRET ratio, antagonist, 17 h; ratio activity, negative = inhibition: at 62 µM (top of the series) unless noted
How it was run: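 PPARd-bla HEK293H cells (UAS-bla reporter) preincubated 5 h, then given compound plus 300 nM final L165041 agonist for 17 h at 37 C. Beta-lactamase activity read by LiveBLAzer B/G FRET substrate fluorescence after 2 h at room temperature.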

[6] = qHTS assay to identify small molecule agonists of the peroxisome proliferator-activated receptor delta (PPARd) signaling pathway - cell viability counter screen (AID 743211); conditions: PPARd-bla HEK293H viability, CellTiter-Glo luminescence, 17 h; activity change, negative = cytotoxicity: at 62.6 µM (top of the series) unless noted; further: potency means the concentration at half of the fitted maximal effect; nearly all actives have a fitted effect of over 55% in size
How it was run: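 PPARd-bla HEK293H cells (UAS-beta-lactamase reporter) were treated with compounds for 17 h at 37 C. Viability was then read in the same wells by CellTiter-Glo luminescence after 30 min at room temperature.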

[7] = qHTS assay to identify small molecule antagonists of the farnesoid-X-receptor (FXR) signaling pathway - cell viability counter screen (AID 743221; active means well fitted cell-killing curve with a large enough effect in the repeat runs, not every such curve was filed as active; inconclusive means weak or mixed curves, or effect the other way; inactive means no such curve, though single readings can be large or run the other way; further: potency means the concentration at half of the fitted maximal effect; nearly all actives have a fitted effect of over 50% in size); conditions: FXR-bla HEK293T viability, CellTiter-Glo luminescence, 16 h; activity change, negative = cytotoxicity: at 62.6 µM (top of the series) unless noted
How it was run: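 FXR-UAS-bla HEK 293T cells were treated with test compounds plus chenodeoxycholic acid (50 uM final) for 16 h at 37 C. Cell viability in the same wells was then read as CellTiter-Glo luminescence after 30 min at room temperature.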

[8] = qHTS assay to identify small molecule agonists of the vitamin D receptor (VDR) signaling pathway - cell viability counter screen (AID 743224); further: potency means the concentration at half of the fitted maximal effect; nearly all actives have a fitted effect of over 50% in size
How it was run: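 VDR-bla cells, 4 h after plating, exposed to compounds for 16 h at 37C; viability then read in the same wells as CellTiter-Glo luminescence after 30 min at room temperature, following the bla FRET read.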

[9] = qHTS assay to identify small molecule agonists of the NFkB signaling pathway - cell viability counter screen (AID 1159515; calls by dose curve; further: potency means the concentration at half of the fitted maximal effect; nearly all actives have a fitted effect of over 55% in size)
How it was run: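 NFkB-bla ME-180 cells, 2,000/well, plated overnight at 37 C; compound added for 5 hr at 37 C. Viability read in the same wells as the bla reporter, by CellTiter-Glo luminescence after 30 min at room temperature.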

[10] = qHTS assay to identify small molecule agonists of the farnesoid-X-receptor (FXR) signaling pathway - cell viability counter screen (AID 743218); conditions: FXR-bla HEK293T viability, CellTiter-Glo luminescence, 16 h; viability change, negative = cytotoxic: at 62.6 µM (top of the series) unless noted; further: potency means the concentration at half of the fitted maximal effect; nearly all actives have a fitted effect of over 45% in size
How it was run: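 FXR-UAS-bla HEK 293T cells exposed to compounds for 16 h at 37C. Cytotoxicity read in the same wells by CellTiter-Glo luminescence after 30 min at room temperature, following the beta-lactamase FRET read.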

[11] = qHTS assay to identify small molecule antagonists of the peroxisome proliferator-activated receptor gamma (PPARg) signaling pathway - cell viability counter screen (AID 743194); conditions: PPARg-bla HEK293H viability, CellTiter-Glo luminescence, 17 h; Potency: co-treated with 50 nM rosiglitazone unless noted; activity change, negative = cytotoxicity: at 62.6 µM (top of the series), co-treated with 50 nM rosiglitazone unless noted; further: potency means the concentration at half of the fitted maximal effect; nearly all actives have a fitted effect of over 55% in size
How it was run: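 PPARg-UAS-bla HEK293H cells were plated, rested 5 h at 37 C, then treated with compounds plus rosiglitazone (50 nM final) for 17 h at 37 C; viability was then read by CellTiter-Glo luminescence after 30 min at room temperature.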

[12] = qHTS assay for small molecule agonists of the antioxidant response element (ARE) signaling pathway (AID 743202; active means well fitted activation curve with a large enough effect in the signal ratio in the repeat runs, not every such curve was filed as active; inconclusive means weak or mixed curves, or effect the other way; inactive means no such curve, though single readings can be large or run the other way; the % refers to the signal ratio; further: on the % scale 0 is the no-effect control and ±100 the full control effect); conditions: HepG2 ARE-bla reporter, beta-lactamase FRET, 16 h
How it was run: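 Read-out: LiveBLAzer B/G FRET substrate fluorescence after 2 h at room temperature, following 16 h compound treatment at 37 C of HepG2 cells carrying an ARE-driven beta-lactamase reporter.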

[13] = qHTS assay for small molecule activators of the heat shock response signaling pathway (AID 743210; active means well fitted activation curve with a large enough effect in the signal ratio in the repeat runs, with a control signal flat, not every such curve was filed as active; inconclusive means weak or mixed curves; the % refers to the signal ratio; further: potency means the concentration at half of the fitted maximal effect); conditions: HeLa HSE-bla reporter, beta-lactamase ratio, 5 h; activation: at 62.6 µM (top of the series)
How it was run: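 HSE-bla HeLa cells (beta-lactamase reporter under heat shock response elements) were exposed to compounds for 5 h at 37 C, then loaded with LiveBLAzer B/G FRET substrate for 2.5 h at room temperature before fluorescence reading.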

[14] = target: Bile acid receptor (Homo sapiens) (UniProt Q96RI1); assay: qHTS assay to identify small molecule antagonists of the farnesoid-X-receptor (FXR) signaling pathway (AID 743217; active means well fitted inhibition curve with a large enough effect in the signal ratio in the repeat runs, not every such curve was filed as active; inconclusive means weak or mixed curves, or effect the other way; inactive means no such curve, though single readings can be large or run the other way; the % refers to the signal ratio; further: potency means the concentration at half of the fitted maximal effect); conditions: HEK293T FXR-UAS-bla, beta-lactamase ratio, CDCA-stimulated, 16 h; activity change, negative = inhibition: at 62.6 µM (top of the series) unless noted
How it was run: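 FXR-UAS-bla HEK 293T cells (beta-lactamase reporter) given compound plus chenodeoxycholic acid (50 uM final), 16 h at 37C. LiveBLAzer B/G FRET substrate added for 2 h at room temperature; fluorescence read.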

[15] = target: Bile acid receptor (Homo sapiens) (UniProt Q96RI1); assay: qHTS assay to identify small molecule agonists of the farnesoid-X-receptor (FXR) signaling pathway (AID 743220; active means well fitted activation curve with a large enough effect in the signal ratio in the repeat runs, not every such curve was filed as active; inconclusive means weak or mixed curves, or effect the other way; the % refers to the signal ratio; further: on the % scale 0 is the no-effect control and ±100 the full control effect); conditions: HEK293T FXR-UAS-bla, beta-lactamase FRET ratio, 16 h; activation: at 62.6 µM (top of the series) unless noted
How it was run: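 Beta-lactamase reporter under UAS control in GeneBLAzer FXR HEK 293T cells (5000/well) measured with LiveBLAzer FRET substrate after 2 h at room temperature. Compound exposure lasted 16 h at 37C.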

[16] = ratio activity, negative = inhibition: at 62.6 µM (top of the series) unless noted
[17] = activation: at 61 µM (top of the series) unless noted
Tags describe the fitted curve by direction and shape or compound fluorescence and quenching.

Chain of UniProt P37231 (P37231 whole entry, looked up): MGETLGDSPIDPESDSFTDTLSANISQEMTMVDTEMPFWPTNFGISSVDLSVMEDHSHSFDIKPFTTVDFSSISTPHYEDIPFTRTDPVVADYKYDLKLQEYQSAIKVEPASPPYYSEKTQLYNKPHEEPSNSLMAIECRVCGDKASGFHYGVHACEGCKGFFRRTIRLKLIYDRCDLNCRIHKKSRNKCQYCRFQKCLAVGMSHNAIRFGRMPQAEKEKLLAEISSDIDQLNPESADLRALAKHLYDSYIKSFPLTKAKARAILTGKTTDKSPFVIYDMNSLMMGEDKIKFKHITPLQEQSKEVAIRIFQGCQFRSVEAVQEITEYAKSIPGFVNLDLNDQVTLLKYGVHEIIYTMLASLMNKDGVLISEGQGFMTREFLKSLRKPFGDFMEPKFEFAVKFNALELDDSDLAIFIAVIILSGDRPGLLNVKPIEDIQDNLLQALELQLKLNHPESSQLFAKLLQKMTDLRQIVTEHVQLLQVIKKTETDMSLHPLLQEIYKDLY
Chain of UniProt Q96RI1 (Q96RI1 whole entry, looked up): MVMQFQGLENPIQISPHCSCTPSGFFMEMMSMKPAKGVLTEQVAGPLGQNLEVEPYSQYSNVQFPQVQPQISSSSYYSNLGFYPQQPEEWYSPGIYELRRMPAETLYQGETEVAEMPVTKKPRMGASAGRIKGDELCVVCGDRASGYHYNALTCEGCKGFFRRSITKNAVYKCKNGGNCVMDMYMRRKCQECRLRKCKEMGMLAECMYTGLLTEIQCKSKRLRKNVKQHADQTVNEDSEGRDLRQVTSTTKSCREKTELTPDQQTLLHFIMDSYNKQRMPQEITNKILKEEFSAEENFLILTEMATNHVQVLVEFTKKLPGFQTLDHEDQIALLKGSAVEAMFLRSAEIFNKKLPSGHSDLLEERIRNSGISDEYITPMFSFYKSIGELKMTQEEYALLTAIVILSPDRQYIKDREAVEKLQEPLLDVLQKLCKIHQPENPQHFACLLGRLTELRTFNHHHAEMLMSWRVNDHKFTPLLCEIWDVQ
Chain of UniProt Q03181 (Q03181 whole entry, looked up): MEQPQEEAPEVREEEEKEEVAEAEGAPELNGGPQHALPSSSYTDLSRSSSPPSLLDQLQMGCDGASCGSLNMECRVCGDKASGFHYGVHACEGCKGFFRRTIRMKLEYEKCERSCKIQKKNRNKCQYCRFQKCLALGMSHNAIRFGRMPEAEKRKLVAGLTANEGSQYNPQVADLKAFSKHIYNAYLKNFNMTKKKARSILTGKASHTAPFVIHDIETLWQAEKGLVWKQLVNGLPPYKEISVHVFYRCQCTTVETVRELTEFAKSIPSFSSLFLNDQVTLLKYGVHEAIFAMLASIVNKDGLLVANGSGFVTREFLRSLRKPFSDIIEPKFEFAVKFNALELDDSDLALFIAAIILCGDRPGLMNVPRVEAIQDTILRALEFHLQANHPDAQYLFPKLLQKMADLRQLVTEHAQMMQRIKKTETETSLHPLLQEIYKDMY

CC(Cc1ccccc1)NCCCCl (stereo not given)
ratio activity, negative = inhibition [1, 16]: inconclusive: 5.51% | Potency [2, 17]: inactive

O=P1(N(CCCl)CCCl)NCCCO1 (stereo not given)
ratio activity, negative = inhibition ([1]; at 62.6 µM (top of the series)): inactive: 6.56% | ratio activity, negative = inhibition ([1]; at 81.1 µM (top of the series)): inactive: 8.96% | ratio activity, negative = inhibition [1, 16]: inconclusive: -4.54% | activity change, negative = cytotoxicity [3]: inconclusive: 7.35% [cytotoxic] | Potency [4]: inconclusive: 11.9 µM [cytotoxic, partial curve, poor fit] | ratio activity, negative = inhibition [5]: inconclusive: -1.52% | Potency [2, 17]: inactive

CCCCCCn1cc[n+](C)c1
Potency [6]: inconclusive: 11.4 µM [cytotoxic, partial curve, poor fit] and inconclusive: 2.81 µM [cytotoxic, partial curve, poor fit] and inconclusive: 27.1 µM [cytotoxic, partial curve, poor fit] | Potency [7]: inconclusive: 12.8 µM [falling, partial curve, poor fit] and inconclusive: 22.3 µM [falling, partial curve, poor fit] | Potency [8]: inconclusive: 28 µM [cytotoxic, full curve, poor fit] [middle of 5 runs] | activation [2, 17]: inconclusive: 2.23% [at 78.8 µM] | activation ([2]; at 78.8 µM (top of the series)): inactive: -2.54% [middle of 5 runs]

CC(Cl)CCl (stereo not given)
Potency [2, 17]: inactive

CCCCCCCCn1cc[n+](C)c1
Potency [6]: inconclusive: 6.91 µM [cytotoxic, full curve] and inconclusive: 1.97 µM [cytotoxic, full curve] and inconclusive: 6.23 µM [cytotoxic, partial curve] | Potency [4]: inconclusive: 0.195 µM [cytotoxic, full curve] | Potency [9]: inconclusive: 55.5 µM [cytotoxic, partial curve, poor fit]

O=c1[nH]c2ccccc2n1CCCN1CCC(n2c(=O)[nH]c3cc(Cl)ccc32)CC1
Potency [6]: inconclusive: 11.9 µM [cytotoxic, partial curve, poor fit] | Potency [4]: inconclusive: 33.5 µM [cytotoxic, partial curve, poor fit] | Potency [10]: inconclusive: 10.6 µM [cytotoxic, single point] | Potency [9]: inconclusive: 15.1 µM [cytotoxic, partial curve]

NCC(CC(=O)O)c1ccc(Cl)cc1 (stereo not given)
ratio activity, negative = inhibition [1, 16]: inconclusive: 10.5% [at 0.55 µM] | Potency [2, 17]: inconclusive: 0.0002 µM

CC(C)(OOC(C)(C)c1ccccc1)c1ccccc1
Potency [1, 16]: inconclusive: 12.3 µM [activator, full curve, poor fit] | ratio activity, negative = inhibition [1, 16]: inconclusive: 1.21% | Potency [11]: inconclusive: 48.3 µM [cytotoxic, partial curve, poor fit] | activation ([12]; activation: at 73.3 µM (top of the series) unless noted): inconclusive: -11.7% | activation ([12]; at 73.3 µM (top of the series)): inactive: 5.67% | Potency [13]: inconclusive: 55.7 µM | viability change, negative = cytotoxic [4]: inconclusive: 31.5% | Potency [14]: inconclusive: 7.65 µM [inhibitor, full curve, poor fit] | Potency [15]: inactive | Potency [8]: inconclusive: 30.5 µM [cytotoxic, partial curve, poor fit] and inconclusive: 43.6 µM [cytotoxic, partial curve] | Potency [2, 17]: inconclusive: 48.3 µM [falling, partial curve, poor fit]
